Source: patent US8512970B2, “Rapid bioluminescence detection assay” (The Secretary of State for Health, priority 2009, dated 2013)

Test: Stability of recombinant AK enzymes after 80° C. for 30 minutes in crude E. coli lysate
Conditions: 80° C. for 30 minute, 10-fold serial dilutions from 1 mg/ml total cellular protein

B1: T. maritima: Adenylate kinase (AK) from Thermotoga maritima, monomer; reporter kinase (protein, UniProt Q9X1I8 1-220, looked up)
Adenylate kinase: MMAYLVFLGPPGAGKGTYAKRLQEITGIPHISTGDIFRDIVKKENDELGKKIKEIMERGELVPDELVNEVVKRRLSEKDCERGFILDGYPRTVAQAEFLDGFLKTQNKELTAAVLFEVPEEVVVQRLTARRICPKCGRIYNLISLPPKEDELCDDCKVKLVQREDDKEETVRHRYKVYLEKTQPVIDYYDKKGILKRVDGTIGIDNVIAEVLKIIGWSDK
stability of recombinant enzyme: significantly greater stability than the other enzymes tested
